From PubChem BioAssay AID757 (NMMLSC, 2007)
The campaign covered roughly 190,000 compounds. About 520 (0.27%) were called active. Inconclusive results, whose numbers are uncertain, are shown with a selection of clear calls.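 The calls were made as follows: active = GTP binding activity at least 20 points away from the 100% control level, either lower or higher; inconclusive = compound flagged as likely green fluorescent, judged across all proteins; inactive = the rest.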

target: Ras-related C3 botulinum toxin substrate 1 (Homo sapiens) (UniProt P63000); test: wildtype Rac1 GTP binding modulators, primary screen, biochemical, GST-Rac1 beads, flow cytometry, multiplex (AID 757); details: fluorescent GTP binding, at 10 µM, actives lie on both sides, 0 = cold GTP competed, 100 = untreated

Row | SMILES | GTP binding activity (% of control)
1 | CCc1sc(C(=O)NCc2ccccc2)cc1C | inconclusive: 93%
2 | Cc1cc(N2CCN(c3ccccn3)CC2)n2c(nc3ccccc32)c1C#N | inconclusive: 84%
3 | CC(C)c1ccc(NC(=O)N2CCCC2C(=O)Nc2ccc(-n3cnnn3)cc2)cc1 (centres undefined) | inactive: 96%
4 | Cc1c(NC(=O)c2nn3c(c2Br)NC(c2ccccc2)CC3C(F)(F)F)c(=O)n(-c2ccccc2)n1C (centres undefined) | inactive: 103%
5 | COc1ccc(C(=O)N[C@H](C(=O)OCc2cc(=O)oc3cc(C)ccc23)C(C)C)cc1 | active: 33%
6 | COc1ccc(CNc2nc3c(c(=O)n(Cc4ccc(Cl)cc4)c(=O)n3C)n2C)cc1 | inactive: 83%
7 | Cc1cc(N2CCC(C)CC2)nc(NCc2ccccc2)n1 | inactive: 104%
8 | Cc1cccc(C)c1NC(=O)CNCC(=O)N(C)C | inactive: 103%
9 | CC(=O)N1CC(=O)N(Cc2ccccc2)/C(=C/c2ccccc2)C1=O | inactive: 99%
10 | COc1cccc(=O)c2c(C)n(-c3cc(C)cc(C)c3)c(C)c12 | inconclusive: 108%
11 | COC(=O)C1CCCN1C(=O)COc1ccc(Cl)cc1Br (centres undefined) | inactive: 103%
12 | CCCC(=O)N(c1ccc(OC)cc1)C1C=CS(=O)(=O)C1 (centres undefined) | inconclusive: 108%
13 | CCN(CC)S(=O)(=O)c1ccc(C(=O)Nc2nnc(C(C)C)s2)cc1 | inconclusive: 104%
14 | O=C(OCC1COc2ccccc2O1)c1c(F)cccc1F (centres undefined) | inactive: 102%
15 | CCc1sc(C(=O)Nc2ccc(F)cc2C)cc1C | inactive: 104%
16 | O=C(COC(=O)/C=C/c1cccc(Cl)c1)NCCC1=CCCCC1 | inconclusive: 92%
17 | C=CCc1cccc(CNc2c(C)cc(C)cc2C)c1O | inactive: 96%
18 | Cn1c(NC(=O)Cc2cccc3ccccc23)cc(=O)n(C)c1=O | inconclusive: 90%
19 | O=C(Nc1c(F)cccc1F)c1cnc(N2CCN(c3ccccn3)CC2)c2ccccc12 | active: 131% [activator]
20 | Cn1c(SCC(=O)Nc2cc(C(C)(C)C)nn2-c2ccccc2)nc2ccccc21 | inconclusive: 159%
21 | N#Cc1cc2ccc(N3CCOCC3)cc2cc1C#N | inconclusive: 109%
22 | COc1ccc(Br)cc1/C=N/NC(=O)c1cccc(S(=O)(=O)N2CCOCC2)c1 | inconclusive: 97%
23 | Cc1nc2c(-c3ccc(Cl)cc3)c(C)[nH]n2c(=O)c1Cc1ccccc1 | inconclusive: 77%
24 | COc1cc(C(=O)Nc2nc(-c3cccs3)cs2)cc(OC)c1OC | inconclusive: 95%

Row | SMILES | GTP binding activity (% of control)
25 | COCCNC(=O)c1cnn2c(C(F)F)cc(-c3ccccc3)nc12 | active: 79%
26 | CC(=O)N1N=C(c2ccccc2)OC1c1cccnc1 (centres undefined) | inactive: 98%
27 | O=C(CNC(=O)c1cccs1)OCC(=O)c1ccc(Br)cc1 | inconclusive: 92%
28 | O=C(CC1CCCCC1)NCc1ccc(F)cc1 | inactive: 100%
29 | C=CCN(Cc1cc(OC)ccc1OC)S(=O)(=O)N(C)C | inconclusive: 104%
30 | COc1ccc(N=C2SC(C(=O)Nc3ccc(OC)cc3)CC(=O)N2CCN2CCOCC2)cc1 (centres undefined) | inconclusive: 104%
31 | CCCC1Cc2c(sc3ncnc(N)c23)CO1 (centres undefined) | inconclusive: 92%
32 | COc1ccc(Cl)cc1NC(=S)N(Cc1cccnc1)Cc1ccco1 | inconclusive: 100%
33 | O=C(O)c1ccc(/C=C/c2nc3sc4c(c3c(=O)[nH]2)CCC4)cc1 | inconclusive: 82%
34 | O=S1(=O)N=C(N(CCO)/N=C/C=C/c2ccccc2)c2ccccc21 | active: 61%
35 | COc1ccc2nc(NC(=O)c3ccc(NS(=O)(=O)c4cccs4)cc3)sc2c1 | inconclusive: 89%
36 | COCCCNC(=O)c1ccc2c(c1)CCN2S(C)(=O)=O | inconclusive: 93%
37 | O=c1ccn(-c2cccc(C(F)(F)F)c2)nc1-c1ccn(-c2cccc(Cl)c2)n1 | inactive: 108%
38 | COC(=O)/C=C1\NCCSC1=O | inconclusive: 112%
39 | O=C(CCCN1C(=O)/C(=C/c2cccs2)SC1=S)NNC(=O)c1ccccc1O | inconclusive: 93%
40 | Cc1csc(CN(C)C(=O)CC2C(=O)NCCN2CC(C)(C)C)n1 (centres undefined) | inactive: 98%
41 | O=C(C[n+]1cccc(CNC(=O)c2ccc(OC(F)F)cc2)c1)Nc1ccccc1Cl | inconclusive: 175%
42 | COc1nnc(-c2ccccc2)s1 | inconclusive: 102%
43 | COc1ccc2nc(SCC(=O)NCC(F)(F)F)[nH]c2c1 | inactive: 99%
44 | Cn1nnnc1SCC(=O)Nc1cc(C(C)(C)C)nn1-c1ccccc1 | inconclusive: 102%
45 | CC(C)Oc1cccc(C(=O)NC(=S)NCc2cccnc2)c1 | inactive: 104%
46 | CNC(=O)CSc1nc2c([nH]c3ccccc32)c(=O)n1CCOC | inconclusive: 102%
47 | Cc1cc(NC(=O)Cn2c(=O)c3c(ncn3CCC(C)C)n(Cc3ccccc3)c2=O)no1 | inconclusive: 107%
48 | COC(=O)C1=C(C)N(C2CCCCC2)C(=O)/C1=C\c1cccs1 | inactive: 97%

Row | SMILES | GTP binding activity (% of control)
49 | COC(=O)c1c(C)nc(C)c(C(=O)OC)c1-c1cccs1 | inconclusive: 116%
50 | CCc1cc2ccc(C)cc2nc1SCC(=O)Nc1cc(OC)c(OC)cc1C(=O)O | inconclusive: 98%
51 | Cc1cccc(Nc2nc(NCc3ccco3)nc(N3CCOCC3)n2)c1 | inactive: 103%
52 | O=C(O)COc1ccc(/C=N/O)cc1Br | inactive: 92%
53 | CC(C)C(=O)N1CCN(c2ccccc2NC(=O)c2cccc(Cl)c2)CC1 | active: 121% [activator]
54 | COc1ccc(Nc2cc(C(=O)NCCCN3CCN(C)CC3)c3ccccc3n2)cc1OC | inconclusive: 131%
55 | NC(=O)c1oc2ccccc2c1NC(=O)c1ccc(F)cc1 | inconclusive: 100%
56 | CC(C)C(=O)Nc1ccc(NC(=S)NC(=O)c2cc3ccccc3o2)cc1 | inconclusive: 97%
57 | Cc1ccc(N2CCN(C(=O)c3cc(C(=O)c4ccccc4C)c[nH]3)CC2)c(C)c1 | inactive: 100%
58 | CCCCn1nc2cc(C(=O)NCc3ccc(OC(F)(F)F)cc3)ccc2c1OC | inconclusive: 111%
59 | CCc1ccc(C(=O)COC(=O)c2cnc(C)cn2)cc1 | inconclusive: 95%
60 | NC(=O)C1(N2CCCCC2)CCN(C(=S)Nc2cc(F)cc(F)c2)CC1 | inactive: 101%
61 | CCS(=O)(=O)Nc1cccc(-c2ccc3nnc(C)n3n2)c1 | inconclusive: 95%
62 | CCOC(=O)C1=NOC2C(=O)N(c3ccc(Cl)cc3Cl)C(=O)C12 (centres undefined) | inconclusive: 95%
63 | CN1CCN(C(=O)CC2(CC(=O)O)CCCC2)CC1 | inactive: 99%
64 | FC(F)(F)c1cc(-c2ccc(Cl)cc2)nc2ncnn12 | inconclusive: 110%
65 | c1ccc(C(c2ccccc2)N2CCN(c3nc4ccccc4n4cnnc34)CC2)cc1 | inconclusive: 92%
66 | CCC(=O)NC(C)c1nc2ccccc2n1C (centres undefined) | inconclusive: 105%
67 | COc1ccc2c(c1)c1ncn(Cc3ccco3)c(=O)c1n2C | inconclusive: 90%
68 | Cc1ccc2oc(=O)c3cc(C(=O)Nc4cc(-c5cccc(F)c5)no4)sc3c2c1 | inactive: 100%
69 | CCC(C)NS(=O)(=O)c1ccc(OCC(=O)NCc2ccccn2)cc1 (centres undefined) | inconclusive: 97%
70 | O=C(C#Cc1ccccc1)c1ccc([N+](=O)[O-])cc1 | inactive: 90%
71 | CC(C)(C)NC(=O)Cn1nnc(-c2ccccc2Cl)n1 | inconclusive: 100%
72 | O=C1CSC(c2ccccn2)N1c1ccc(F)cc1F (centres undefined) | inactive: 99%

Row | SMILES | GTP binding activity (% of control)
73 | CCOc1ccccc1C(=O)Nc1cccc(-c2ccc3nncn3n2)c1 | active: 73%
74 | Cc1ccc(CCNC(=O)CN(C)S(=O)(=O)c2cnc[nH]2)cc1 | inconclusive: 105%
75 | COc1cc(/C=N/Nc2nnc3c(n2)[nH]c2ccccc23)ccc1O | inactive: 86%
76 | COc1ccc(C(=O)Nn2c(SCC(=O)c3ccccc3)nc3ccccc3c2=O)cc1 | inconclusive: 78%
77 | CCCCCSc1nc2c(cnn2-c2ccccc2)c(=O)[nH]1 | inconclusive: 96%
78 | COc1ccc(C2=Nc3cccc4cccc(c34)N2)cc1 | inconclusive: 104%
79 | CC(=O)c1cn(CC(=O)NCC2CCCO2)c2ccccc12 (centres undefined) | inconclusive: 97%
80 | O=C(NC1(C(F)(F)F)NC(=O)N(Cc2cccnc2)C1=O)c1cccs1 (centres undefined) | inconclusive: 113%
81 | O=c1c2ccccc2nc2c3ccccc3c(NCCN3CCOCC3)nn12 | inconclusive: 78%
82 | O=C(Nc1ccc(Cl)cc1)/C(=C/c1ccc([N+](=O)[O-])cc1)c1nc2ccccc2s1 | inactive: 97%
83 | Fc1ccc(NC(=S)Nc2ccccc2N2CCOCC2)cc1Cl | inactive: 99%
84 | Brc1ccc(/C=N/Nc2ccc3ccccc3n2)cc1 | inconclusive: 89%
85 | COc1cc(C(=O)NCc2nnc(SCC(=O)N3CCCCC3)o2)cc(OC)c1OC | inconclusive: 101%
86 | Cc1cccc(NC(=O)NC(=O)c2ccccc2)n1 | inconclusive: 94%
87 | O=C(O)c1cn(C2CC2)c2cc(N3CCN(S(=O)(=O)c4ccc5c(c4)OCCO5)CC3)c(F)cc2c1=O | inactive: 92%
88 | CCCNS(=O)(=O)/C=C/c1ccccc1 | inconclusive: 98%
89 | CCOC(=O)C1=C(C)Nc2nc(SCC)[nH]c(=O)c2C1c1ccncc1 (centres undefined) | inactive: 96%
90 | CN(C(=O)COC(=O)c1cc(NS(=O)(=O)c2cc([N+](=O)[O-])ccc2Cl)ccc1O)C1CCCCC1 | inactive: 95%
91 | Cc1ccc(N2C(=O)CC(Nc3ccc(Cl)c(S(=O)(=O)N(C)C)c3)C2=O)c(C)c1 (centres undefined) | inactive: 96%
92 | O=C(O)CCc1ccc(-c2ccccc2)n1NC(=O)c1ccco1 | inconclusive: 108%
93 | Cc1cc(C(=O)Nc2cccc(S(=O)(=O)N3CCCCC3)c2)c2ccccc2n1 | inactive: 99%
94 | COC(=O)c1cccc(Nc2cc(C)nc(-c3ccccc3O)n2)c1 | inconclusive: 80%
